According to PubChem BioAssay AID463173 (ICCB-Longwood Screening Facility, Harvard Medical School, 2010):
Out of some 52,000 compounds screened, about 4,300 (8.3%) were called active. Cut-off read from the data, not from the text of the source: active = survival mostly below about 52% (no sharp cut-off); inactive = mostly above about 56%. The list shows a part of the results.

System: DeltatarO mutant
Assay: S. aureus survival, RN4220 and DeltatarO strains – OD600, teichoic acid synthesis inhibitors, primary screen (AID 463173)
Settings: S. aureus RN4220 wild type/DeltatarO growth, OD600, 18 h, active compounds read low, screened at 18.75 µg/mL (by protocol)

| SMILES | survival |
| --- | --- |
| O=C(Cn1cc(SCc2ccccc2)c2ccccc21)N1CCCCCC1 | inactive: 83% |
| Cn1c(=O)c(=O)n(C)c2cc(S(=O)(=O)CCC(=O)Nc3cccc(C(F)(F)F)c3)ccc21 | inactive: 80% |
| COc1cc(OC)c(N(C)C(=O)C2CCCN(c3ncnc4c3nc3n4CCCCC3)C2)cc1Cl (stereo not drawn) | inactive: 67% |
| Cc1ccc(-c2nc3c(cnn3-c3ccccc3)c(=O)n2-c2cccc(Cl)c2)cc1 | active: 33% |
| CN(C)S(=O)(=O)c1ccc2c(c1)N(CC(=O)N1CCN(c3cccc(Cl)c3)CC1)CCS2 | inactive: 96% |
| O=C(N1CCOCC1)N1CCN(c2ccccc2)CC1 | inactive: 88% |
| O=C1N/C(=N/N=C\c2ccco2)SC1Cc1cccc(C(F)(F)F)c1 (stereo not drawn) | inactive: 56% |
| Cc1onc(-c2ccccc2)c1C(=O)Nc1ccc(S(=O)(=O)Nc2ncccn2)cc1 | inactive: 78% |
| COc1cc(NC(=O)Nc2nnc(N3CCCCCC3)s2)cc(OC)c1 | inactive: 80% |
| CC1CCCN(Cc2c(O)ccc3c(=O)c(Oc4ccc(C(C)(C)C)cc4)c(C(F)(F)F)oc23)C1 (stereo not drawn) | active: 17% |
| O=C(CCSc1nnc(-c2ccco2)o1)N1CCOCC1 | inactive: 87% |
| COc1cc(/C=C/c2nc3cc(Cl)ccc3c(=O)n2-c2cccc(C(F)(F)F)c2)cc(OC)c1OC | inactive: 96% |
| COc1ccc(-c2c(C#N)c(N)nc(OC)c2C#N)cc1 | inactive: 84% |
| O=C(COCc1cc(-c2ccco2)on1)Nc1cccc(O)c1 | inactive: 78% |
| Cc1cc(C)cc(NC(=O)C(=O)NCCCN2CCOCC2)c1 | inactive: 80% |
| Cc1ccc2cc3cc(C(=O)N4CCN(c5ccccc5)CC4)oc3nc2c1 | inactive: 61% |
| O=c1c(N2CCN(c3cccc(Cl)c3)CC2)csc2ccccc12 | inactive: 68% |
| CCc1nn(CC(=O)NCc2ccccc2Cl)c(=O)c2cc3ccccc3n12 | inactive: 62% |
| CCOc1ccc(CN(C(=O)c2nc(SC)ncc2Cl)C2CCS(=O)(=O)C2)cc1 (stereo not drawn) | inactive: 88% |
| CC(C)CNCC1OCc2ccccc2CO1 | inactive: 98% |

| SMILES | survival |
| --- | --- |
| O=C(Nc1nc2ccc(S(=O)(=O)N3CCCC3)cc2s1)c1ccc(F)cc1 | inactive: 70% |
| C/C(CC1CC(COCCC(C)C)OC1=O)=N\NC(N)=S (stereo not drawn) | inactive: 88% |
| CCc1ccc(Oc2c(C(F)(F)F)oc3c(CN4CCN(CC)CC4)c(O)ccc3c2=O)cc1 | inactive: 78% |
| CC1CCCCN1CCCNC(=O)c1ccc2c(c1)sc1nc(-c3ccc(F)cc3)cn12 (stereo not drawn) | active: 29% |
| CCOc1ccccc1CNC(=O)c1cn(-c2ccc(OC)cc2)c(=O)c2ccccc12 | inactive: 106% |
| CN1CCN(C(=O)CCCC(=O)O)CC1 | inactive: 75% |
| COc1cccc(CNC(=O)CSc2n[nH]c(-c3ccccc3Cl)n2)c1OC | inactive: 118% |
| COc1cccc(C2=C(C(C)=O)Sc3nnc(C4CCCCC4)n3N2C(C)=O)c1 | inactive: 81% |
| CCOc1ccc(NC(=O)[C@H]2O[C@@H]3OC(C)(C)O[C@@H]3[C@H]3OC(C)(C)O[C@H]32)cc1 | inactive: 99% |
| Cc1cccc(NC(=O)CSc2nc(=O)n(Cc3ccco3)c3c2CCC3)c1C | inactive: 72% |
| CCOC(=O)c1c(NC=O)sc2c1CCCC2 | inactive: 66% |
| CC(C)c1cc(C(=O)NC(C)c2ccccc2)no1 (stereo not drawn) | inactive: 50% |
| Cc1cc(C)cc(NC(=O)Cn2nnc(C(=O)NCc3ccccc3Cl)c2N)c1 | inactive: 72% |
| COc1ccc(CCNC(=O)c2cc3c(s2)-c2c(C)cccc2OC3)c(OC)c1 | inactive: 85% |
| CCOc1ccc(C(=O)Nc2ccccc2C(=O)OCc2cc(=O)n3nc(C4CC4)sc3n2)cc1 | inactive: 95% |
| Cc1cccc2c1-c1sc(C(=O)NCc3ccc(Cl)cc3)cc1CO2 | inactive: 89% |
| Cc1cccc(N2CC(c3nc4ccccc4n3CCC3CCCCC3)CC2=O)c1 (stereo not drawn) | active: 31% |
| Cc1ccc(-c2nc(S(=O)(=O)c3ccc(C)cc3)c(SCC(=O)Nc3ccc(F)cc3)o2)cc1 | inactive: 58% |
| CCN(Cc1ccccc1)C(=O)c1cc2c(=O)oc3ccc(C)cc3c2s1 | inactive: 82% |
| CCOC(=O)c1noc2ncnc(N3CCN(c4cccc(Cl)c4)CC3)c12 | inactive: 83% |

| SMILES | survival |
| --- | --- |
| CCOC(=O)N1CCc2c(sc3c2c(=O)n(-c2ccc(Cl)cc2)c(=O)n3Cc2cccc(OC)c2)C1 | inactive: 109% |
| COc1ccc(-c2nc3nc(C)cc(N4CCN(c5cccc(C(F)(F)F)c5)CC4)n3n2)cc1 | inactive: 45% |
| COCCCNC(=O)c1ccc(Cn2c(=O)c3ccccc3n(CC(=O)Nc3ccc(C)cc3C)c2=O)cc1 | inactive: 96% |
| Cc1nc2ccc(S(=O)(=O)NC(C(=O)N3CCN(c4ccc(Cl)cc4)CC3)C(C)C)cc2s1 (stereo not drawn) | inactive: 60% |
| CCc1ccc(NC(=O)Cc2csc(COc3cccc(C)c3)n2)cc1 | inactive: 88% |
| CCn1c(=O)cc(SCC(=O)NCCc2cccc(C)c2)c2ccccc21 | inactive: 69% |
| O=S(=O)(c1ccc2[nH]c3c(c2c1)CCCC3)N1CCN(c2cccc(C(F)(F)F)c2)CC1 | inactive: 72% |
| Cc1cc(C)cc(Nc2nc3ccccc3n3cnnc23)c1 | inactive: 79% |
| COc1cc(C2N=C(N)Nc3nc4ccccc4n32)ccc1OCC(=O)O (stereo not drawn) | inactive: 91% |
| COc1ccc(NC(=O)Nc2cccc(OCc3cc(=O)n4cccc(C)c4n3)c2)c(OC)c1 | inactive: 88% |
| COCCn1c(C)cc(O)c(C(c2ccc(Cl)cc2)N2CCN(c3ccccc3)CC2)c1=O (stereo not drawn) | inactive: 70% |
| CCCCCSc1nnc2c(n1)OC(CC)Nc1ccc(Br)cc1-2 (stereo not drawn) | inactive: 63% |
| CCC(=O)Nc1ccccc1-c1nc2ccccc2n(C(C)C(=O)Nc2cccc(Cl)c2C)c1=O (stereo not drawn) | active: 42% |
| CC(C)c1ccc(Nc2ncnc3c2nc2n3CCCC2)cc1 | inactive: 85% |
| COc1cc(NC(=O)CNC(=O)Cn2ccc3ccccc3c2=O)cc(OC)c1OC | inactive: 123% |
| COc1ccc(-c2cc(C(=O)NCc3ccc(F)cc3)no2)cc1 | inactive: 178% |
| Cc1cc(C)cc(-n2ccnc2SCC(=O)Nc2ccc(C)cc2C)c1 | inactive: 79% |
| CC(=O)c1ccc(N2CCN(c3nc4c(S(=O)(=O)c5ccc(C)c(C)c5)nnn4c4ccc(Cl)cc34)CC2)cc1 | inactive: 86% |
